± gives the standard deviation of the averaged measurements. The list shows a part of the results.

In the test the test system is PfAP2-I AP2 domain 3 (GST-tagged). In words: gcPBM binding intensity (ln(normalized median fluorescence intensity)); higher = stronger DNA binding. A digest of the protocol: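 In this array assay, P. falciparum DNA-binding domains with a GST tag, expressed in E. coli, were applied for 1 h to primer-extended double-stranded 36-bp intergenic genomic probes and negative controls on an Agilent 4 × 180k array. Bound protein was visualised with Alexa488 anti-GST antibody at 488 nm. Binding intensity is the highest Masliner-normalised natural-log median intensity across replicate spots of either probe orientation.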
In the case of “CAATACTAATTGTATACACACAAAAATATACCATAT [CACACA_site3326]”, the “gcPBM binding intensity (ln)” value amounted to 7.64 ± 0.6.

“AATTGATACCTTACATGTACATAATATATATAAATA [XGTACX_site321]”: the “gcPBM binding intensity (ln)” value was 8.25 ± 0.62. The same measure for “GAACCATTTTTTGGTATACACACGTAATTATATAAT [CACACA_site8552]”: 7.93 ± 0.092; for “TTTTTACATACAAATTAACACACATATAGAAAAGAG [CACACA_site8570]”: 8.58 ± 0.17; for “TGTTAATTAAAACATCATTAATATTATTAAAAATAC [XGTACX_negctrl_site509]”: 7.61 ± 0.44. “TCTTTTTTTACTTTCTTTTTTTTTTTTTTTTTTTTT [XGTACX_negctrl_site610]”: the “gcPBM binding intensity (ln)” value came to 9.38 ± 0.057.

As to “AATAAACATATATGTACACACATATACATATATATA [CACACA_site2848]”, the “gcPBM binding intensity (ln)” value came out at 8.03 ± 0.45.

In the case of “TTTTTTTTTAATTATGCATGTAAATTATATATTATA [TGCATGCA_site335]”, the “gcPBM binding intensity (ln)” value was found to be 8.55 ± 1.1. As to “TATTTATAATTAAATACACACATATATTATATATTT [CACACA_site616]”, the “gcPBM binding intensity (ln)” value worked out at 7.5 ± 0.37. The same measure for “TATATTAATTTATATCAACACACAAAATCAATATAC [CACACA_site8518]”: 7.78 ± 0.54.

For “TTAGCTACACGCTAATGTACACAAATACAAAGAAAA [XGTACX_site3993]”, the “gcPBM binding intensity (ln)” value amounted to 7.71 ± 0.51. Consider “TATACGCATATATAAACACACAAAAAAAAAAAAAAA [CACACA_site2026]”, for which the “gcPBM binding intensity (ln)” value was 8.04 ± 0.77. The same measure for “ATAAAATATTATATATATATATATATATATATATAT [CACACA_negctrl_site215]”: 9.31 ± 0.74; for “AAGAATGTTATATTATGATGCTGTCTTTTTTTAAGA [CACACA_negctrl_site251]”: 7.46 ± 0.46; for “AAATTATTTATATGTTGTACTTATCCATTTTTATAA [XGTACX_site7441]”: 7.67 ± 0.57.

On to “TAATTTTTTTTATTATGTACTTAATAAATGTTAATT [XGTACX_site365]”, for which the “gcPBM binding intensity (ln)” value amounted to 7.63 ± 0.36. The same measure for “TATATTTATAGACACACACACAAAAAAAAAAAAAAA [CACACA_site6818]”: 8.23 ± 0.73; for “TGAAGAATATTTTTCACACATATATATATATATATA [CACACA_site6080]”: 9.59 ± 0.41.

As for “TGAATATATAAATATGCACACTTCTATTATAAATAA [CACACA_site5796]”, the “gcPBM binding intensity (ln)” value is 8.88 ± 0.092. Take “TAACATATAAGTGTGTGTACGTACTGCGTATAATAT [XGTACX_site8597]”: the “gcPBM binding intensity (ln)” value was 8.53 ± 0.28. With “GACAAACAATATGAATGTACATAAAAATATAACTAA [XGTACX_site1167]” the figure was 7.96 ± 0.56; with “ATATATATATATATTGCACACACAATTATTATTATT [CACACA_site8721]”, 10.4 ± 0.13; with “ATATATATATATATATGTACATATTTTTGTTTGATG [XGTACX_site51]”, 9.24 ± 0.071.

On to “CAGATATTCATATAAACACACATACAAATTATGTAT [CACACA_site4258]”, for which the “gcPBM binding intensity (ln)” value stood at 7.52 ± 0.45.

As to “TATATATATAATTAAGCATGCTAGAAACCTTTGAAA [TGCATGCA_site489]”, the “gcPBM binding intensity (ln)” value turned out to be 8.23 ± 0.67. With “TACAATCTAAAATACACACGCACACCGAAAAAAAAA [CACACA_site3520]”, the “gcPBM binding intensity (ln)” value was 8.13 ± 0.37. With “TATTTATTGTGACACTTTTATTATTTTATGATAAAA [CACACA_negctrl_site37]” the figure was 7.83 ± 0.33; with “GTGTTCTTGTTATACACACACATATATATATATATA [CACACA_site1032]”, 9.31 ± 0.18; with “TGAAAGAAGCATAAATGTACACACATATTTATATAT [XGTACX_site2645]”, 7.76 ± 0.45.

“GAGAAAAGGAAATAACGTACACATATGCATATCCAA [XGTACX_site5858]”: the “gcPBM binding intensity (ln)” value was 7.88 ± 0.64. With “GTAATATTTTATAGTAGTACATATTTTTATTATTTT [XGTACX_site3333]” the figure was 7.75 ± 0.2; with “GAGAGGTCAGTTCACAGTACCCAGAAACTCTACGAG [XGTACX_site2559]”, 7.48 ± 0.51. With “TTGTTCTTATTTCATTTTTATATGATATTTCATTAT [CACACA_negctrl_site1619]” the figure was 7.72 ± 0.41; with “AATATTTATTTAATTTCACACAGGTCTTTTTTTTTT [CACACA_site5188]”, 7.57 ± 0.63; with “TTTTATCGTTTTTTTTTTTTTTTTTTTTTTTTTTTT [CACACA_negctrl_site1309]”, 9.95 ± 0.29.

Consider “TTTGTTCATATGAAATGTACAAAAAAAAAAAAAAAA [XGTACX_site8849]”, for which the “gcPBM binding intensity (ln)” value is 8.03 ± 0.7. With “CCTTATAAATACTGCACACATAAAATATATATTATC [CACACA_site2806]” the figure was 10.4 ± 0.46. With “ATGTAGAAGTAATGCACACATATGTATTTATATATA [CACACA_site5391]” the figure was 10.9 ± 0.68.

In the case of “AAAAAAATTAATATGTCAGCACATATATACATACAT [GTGCAC_negctrl_site110]”, the “gcPBM binding intensity (ln)” value came to 7.73 ± 0.47. With “TATATATATAAAAAAGCACACATACATACATACATA [CACACA_site8196]” the figure was 8.81 ± 0.46; with “ATATAATATTTATATGTACACACCTTAATCCTTAAA [CACACA_site3555]”, 7.95 ± 0.41. With “ATAAACGTTTTTGAAAGTACATATCATTCATTTGAT [XGTACX_site200]” the figure was 7.62 ± 0.67; with “TTTTAACATATAAGTACACACATATAATCAATCATA [CACACA_site2325]”, 8.1 ± 0.12. For the sequence “CGCACACGCAGACACACACACACATATAAATAAATA [CACACA_site7101]”, the “gcPBM binding intensity (ln)” value amounted to 7.79 ± 0.31. The same measure for “AAAAAAAAGAAAAAAAAAAAAAAAAAAAAAAAAAAA [CACACA_negctrl_site489]”: 8.35 ± 0.95.

Regarding “ATTAGTATATTTCTCTGTACTTACATTAAAATATAA [XGTACX_site2217]”, the “gcPBM binding intensity (ln)” value came out at 7.85 ± 0.38. With “TTTTATCAATAAATTCGTACACATGAACTAGAGAGT [XGTACX_site5758]” the figure was 8.21 ± 0.38; with “TACATTCTAATAATTGCACACTGGTTATTAAAAGGA [CACACA_site1614]”, 8.81 ± 0.071; with “TTTTTATTTATATTTCATTGAAGTTAAATTATTTTA [XGTACX_negctrl_site575]”, 7.29 ± 0.62. Turning to “TCCTTAAAATATGGTTGTACGTACATCCTAGGTGTT [XGTACX_site7068]”, the “gcPBM binding intensity (ln)” value was 7.98 ± 0.34.

For the sequence “AATTTAATATTCATCTCTAAAGCTATAACAATTACT [CACACA_negctrl_site1079]”, the “gcPBM binding intensity (ln)” value amounted to 7.5 ± 0.61. In the case of “ATATATATATATAAATGTACAGGCTTATCTCTTATT [XGTACX_site1828]”, the “gcPBM binding intensity (ln)” value turned out to be 9.33 ± 0.28. With “TGTATTATATATGTGTGTACATATTTTTTTTTTTTT [XGTACX_site3351]” the figure was 7.91 ± 0.25; with “ATACAAATTTATATTTCACACATTATTATATACTTA [CACACA_site6034]”, 8.04 ± 0.44. The same measure for “TCTGAAAATTAGAAAAGTACAAAATGGTATAGGAAA [XGTACX_site4396]”: 8.04 ± 0.57; for “AAATTATTTCAAATGTTGCACTAAAAATAAAATTAT [GTGCAC_site9460]”: 9.79 ± 0.24. With “TGTTGTTCCAATTTTTGTACATAAAACATATATATA [XGTACX_site5719]” the figure was 8.07 ± 0.54. Consider “AAAAAAAAAAATACTTGTACTTATATAATATATTAT [XGTACX_site8333]”, for which the “gcPBM binding intensity (ln)” value was determined as 7.65 ± 0.18. The same measure for “AAGAAAATATAAAATGCACACTATAAATTGTATATA [CACACA_site7928]”: 8.73 ± 0.014.

Consider “AAAAAAAAAAAAAATTGTACATTAAATTAAAAGAAA [XGTACX_site8708]”, for which the “gcPBM binding intensity (ln)” value was 7.88 ± 0.28. With “AAATTATTTCTTTGCGCATGTAGCTTTTATACTATT [TGCATGCA_site819]” the figure was 8.68 ± 0.69; with “ACATAAATAATAAAAACACACATATGTACCTATATA [CACACA_site6982]”, 7.87 ± 0.5. The same measure for “AATACATGCTAAAAACGTACACGTATAAAATTATAT [XGTACX_site3169]”: 7.97 ± 0.35. The same measure for “TTTTTTTTTTTGGCTAGTACATATGTATTTAAAATG [XGTACX_site7770]”: 8.08 ± 0.65; for “GGTGAAATTATTTCTACATGCAGAAATAATTAATTA [TGCATGCA_site194]”: 7.64 ± 0.56; for “AATTTAATATAATGCACACATAAAAAAAAAATCAAA [CACACA_site1]”: 10.9 ± 0.65.

For the sequence “AAAAAAAAAAAAAAAACACACACATGCACATCATAT [CACACA_site8083]”, the “gcPBM binding intensity (ln)” value amounted to 8.94 ± 0.53.

For “ACAAAATAAAACATCTGTACATATTATTATTATAAG [XGTACX_site4802]”, the “gcPBM binding intensity (ln)” value was determined as 7.63 ± 0.38. With “TATATTTATAACAACACACACAGATCATAAAACTGC [CACACA_site7086]” the figure was 7.87 ± 0.66; with “AAAAAAAACACGCGCACACACACACCCACCCACCGA [CACACA_site2206]”, 8.38 ± 0.77; with “TATACACTTATTGGTGGTACAATATATAAATATATG [XGTACX_site3289]”, 7.67 ± 0.23. The same measure for “CAAAAGTAAGCACGCACACACAACATGAAATAAAAT [CACACA_site165]”: 8.32 ± 0.49. The same measure for “TTTTGATCTGAAGGAACCTAAAAAGGGAAGAGAAAA [CACACA_negctrl_site1656]”: 7.56 ± 0.3. Take “ATTAGTATAATGTAACTTAGTTAATAGTGCTAATAT [CACACA_negctrl_site764]”: the “gcPBM binding intensity (ln)” value stood at 9.54 ± 0.4.

For the sequence TTTTTAATATATTAGGTGCACAATAATACACTTTAT, the “gcPBM binding intensity (ln)” value worked out at 11.51 ± 0.064. With “TATATATATATTTATACACACACATATATTTATATA [CACACA_site8054]” the figure was 8.89 ± 0.014; with “AATAAACATAAATAAAAATTATAAAATATATATATG [CACACA_negctrl_site1709]”, 7.49 ± 0.44. The same measure for “ATATATATATATATTACACACTTTTTCTTTTTTTTT [CACACA_site2780]”: 9.41 ± 0.35. With “TTTACATTTCAGTAGACACACAAAAAATAATACTAA [CACACA_site512]” the figure was 7.75 ± 0.34; with “AAAAAAAAATATACATATATATATATATATATATAT [CACACA_negctrl_site1763]”, 9.29 ± 0.34. Regarding “GAAAAAAAAGCTTGCACACGTATTTGCTTTATGTAT [CACACA_site4931]”, the “gcPBM binding intensity (ln)” value was 8.11 ± 0.53.

With “TACATATATATATTATGTACATAAGGTTTGAGTTCA [XGTACX_site2726]”, the “gcPBM binding intensity (ln)” value turned out to be 7.8 ± 0.59. The same measure for “TTTTTGGTATTATTGTGTACTTATAAATAATATAAT [XGTACX_site4019]”: 8.19 ± 0.33.

Turning to “CAAGTAGATATTATACGTACATATATATATATATAT [XGTACX_site8349]”, the “gcPBM binding intensity (ln)” value came out at 9.34 ± 0.57. On to “ATATATATAAATAATTGTACATAATAATAAAATATA [XGTACX_site4839]”, for which the “gcPBM binding intensity (ln)” value was 7.93 ± 0.56. With “ATATTTTGTAACTATACACACATATTTATATTATAA [CACACA_site7433]” the figure was 7.79 ± 0.53. With “ATATAAAATATTACGTGTACACATAAATAAAAATAA [XGTACX_site3746]” the figure was 8.46 ± 0.092; with “TAAAAAATATACATTCGTACATATATATTATATATA [XGTACX_site7918]”, 7.56 ± 0.41.

For the origin of these results see the supplement of paper PMC11417369.
